# The list shows a part of the results. The full chains were built here from the parent and the listed change. Inactive controls read about 0.05.
# B1: TEV protease; numbered along this chain (parent)
# chain: MGESLFKGPRDYNPISSSICHLTNESDGHTTSLYGIGFGPFIITNKHLFRRNNGTLVVQSLHGVFKVKDTTTLQQHLVDGRDMIIIRMPKDFPPFPQKLKFREPQREERICLVTTNFQTKSMSSMVSDTSCTFPSGDGIFWKHWIQTKDGQCGSPLVSTRDGFIVGIHSASNFTNTNNYFTSVPKNFMELLTNQEAQQWVSGWRLNADSVLWGGHKVFMVKPEEPFQPVKEATQL
# Variants of: B1
# Experiment: raw area under fraction-flipped curve 0-4 h after induction (AUC4h, not background-subtracted), DNA-recorder readout of cleavage of the substrate (dimensionless); higher = more cleavage of the substrate by the protease variant
# Details: temperature: 34 °C; time window: 0-4 h after rhamnose induction
# Experimental: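 In vivo DNA recorder in E. coli TOP10(DE3) ΔrhaA at 34 °C. Each TEVp single-site mutant (parent TEVp 0) is paired with a single-site variant of the 7-mer TEVs (canonical ENLYFQ|S). The substrate sits between flexible linkers in a Bxb1-sfGFP-TEVs-SsrA fusion, so cleavage stabilises Bxb1 and speeds flipping of a recombination array, read by NGS. The value is the raw area under the fraction-flipped curve over 0-4 h after rhamnose induction (AUC4h), with ≥20 reads per time point. It is not background-subtracted; inactive controls average about 0.047.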
# 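Further: Bxb1 expression induced with 0.2% (w/v) L-rhamnose at OD600 near 0.5, cultures sampled hourly, flipped fraction per protease–substrate barcode pair counted by paired-end Illumina sequencing.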
Variant,area with substrate EALYFQS,area with substrate ECLYFQS,area with substrate EDLYFQS,area with substrate EELYFQS,area with substrate EHLYFQS,area with substrate EILYFQS,area with substrate EQLYFQS,area with substrate ESLYFQS,area with substrate EVLYFQS,area with substrate EFLYFQS,area with substrate EGLYFQS,area with substrate EKLYFQS,area with substrate ELLYFQS,area with substrate EMLYFQS,area with substrate EPLYFQS,area with substrate ERLYFQS,area with substrate ETLYFQS,area with substrate EWLYFQS,area with substrate EYLYFQS
H62K,0.12,0.103,0.108,0.129,0.101,0.0951,0.131,0.0655,0.0679,–,–,–,–,–,–,–,–,–,–
L61C,0.105,0.0979,0.126,0.121,0.0819,0.0963,0.108,0.105,0.111,0.128,0.0908,0.118,0.0946,0.116,0.122,0.103,0.115,0.0862,0.0879
K68R,0.103,0.0854,0.093,0.146,0.0988,0.0876,0.133,–,–,–,–,0.0839,–,0.101,–,0.0927,0.0921,0.115,0.0976
G80W,0.133,–,–,–,0.112,0.0774,0.136,0.0825,0.102,0.0844,0.102,0.121,0.102,0.11,0.136,0.0441,–,–,–
G80V,0.123,0.0938,0.123,0.141,0.119,0.0902,0.142,0.104,0.0807,–,0.102,0.11,–,0.107,0.117,0.1,0.101,0.089,0.111
G80E,0.149,0.112,0.163,0.139,0.0848,0.105,0.17,–,–,–,–,0.119,0.0941,0.176,0.183,–,–,–,0.124
G80I,0.131,0.119,0.174,–,–,0.0999,0.118,0.124,–,–,–,–,0.137,0.113,0.12,0.115,–,0.098,0.184
G80Q,0.142,0.14,0.127,0.116,0.128,0.078,0.078,0.0958,0.0792,–,–,0.103,–,0.111,0.136,–,0.122,0.0755,0.112
G80D,0.122,–,0.144,–,–,0.126,0.165,0.119,0.106,–,–,0.118,–,0.143,–,0.134,–,0.115,–
D69P,0.126,0.0763,0.103,0.0959,0.0873,0.0879,0.0812,0.0976,0.0929,0.0947,0.0643,0.085,0.0863,0.0925,–,0.0876,0.104,0.0771,0.0576
D69G,0.079,0.0861,–,0.0992,0.0644,0.0663,–,0.0833,0.0713,–,0.106,0.0879,–,0.103,–,–,–,0.0875,0.0489
M88P,0.0936,0.102,0.0872,0.0982,0.0919,–,0.0859,0.0728,0.0853,–,0.0575,0.0855,–,–,0.102,0.0811,–,0.0759,0.0952
M88V,0.134,0.101,0.155,–,0.025,0.102,0.104,0.0971,0.0928,–,–,0.104,0.0874,0.0861,0.123,–,–,0.116,–
M88R,0.0628,0.0665,0.0507,–,–,0.0605,0.0466,0.101,0.0479,–,0.0479,0.036,–,0.0763,0.0654,0.0324,–,0.0403,–
M88N,0.0962,0.0795,–,0.121,0.0785,0.0736,0.113,0.0983,0.0723,–,0.0828,0.0786,0.0763,0.0918,0.0833,0.0805,–,–,–
M88F,0.0979,–,–,–,–,0.0648,0.093,–,0.0721,0.0567,0.0935,–,–,–,–,–,0.0544,0.0738,0.072
L48P,0.0575,0.0575,–,0.0669,0.0612,0.0515,0.041,0.0593,–,–,0.0465,0.0708,–,–,–,0.0643,0.0502,0.0665,0.0769
L48T,0.101,0.0734,–,0.0871,0.0764,0.0792,0.0765,0.0726,0.0706,0.0842,–,0.0546,0.0729,–,0.0574,0.0747,–,–,0.0656
T44R,0.05,0.0419,0.0382,0.0436,0.049,0.0521,0.0453,0.0466,0.0534,0.0136,0.0579,0.0357,0.0388,–,0.0527,0.0473,0.0739,0.0523,0.0338
L56K,0.0558,0.0466,0.0342,–,0.0532,–,0.0544,0.0586,0.0332,–,0.0501,0.0441,0.0496,0.12,0.0469,0.0434,–,–,–
L56A,0.165,0.088,–,–,0.0861,–,0.114,0.0762,0.0815,–,–,0.076,–,0.081,–,–,0.0916,–,–
L56H,0.0397,0.0256,–,0.0495,–,–,–,0.0528,0.0498,0.0469,0.0419,0.0589,0.0451,–,–,0.0431,–,–,–
L56R,0.0447,0.0485,0.02,0.0274,0.0426,0.0461,–,0.0323,–,0.044,0.0589,0.0493,–,0.0243,–,–,0.0514,–,–
L56F,0.119,0.0871,0.127,0.0599,0.0831,0.0833,0.0698,0.0833,0.0764,–,0.0847,0.0917,–,0.101,0.0878,0.0737,0.106,0.0861,0.0873
L56G,0.0663,–,0.0688,–,0.0246,0.0406,0.044,0.0577,0.0503,–,0.0515,0.0493,0.0552,0.0487,–,0.0557,0.0487,–,0.0603
Q75N,0.0991,0.0931,0.0838,0.0337,–,–,–,0.0793,–,–,–,–,0.062,–,–,0.0418,–,0.0684,–

# Source: the supplement of paper PMC12217912
